Results: PubChem BioAssay AID488969 (Vanderbilt High Throughput Screening Facility, 2010)
The full ranking holds about 110,000 compounds; the median of “z-score” is about -0.1, and the highest 2% start at about 2. The list shows a part of the results. The source made the active and inactive calls.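 How the source made its calls: active means z-score in the third read window above 3 or below -3; inactive means the rest.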

Target: Metabotropic glutamate receptor 8 (Rattus norvegicus) (UniProt P70579)
Assay: mGluR8 Gi/Go-coupled signaling modulation – cell-based, rat, thallium flux, HTS, primary screen (AID 488969)
Conditions: HEK293 rat mGluR8, GIRK (G protein-gated inwardly rectifying potassium channel) thallium flux, FluoZin2; at 10 µM; stronger effect = higher value; submaximal glutamate (EC20) added with thallium

UniProt P70579, sequence (P70579 whole entry, looked up): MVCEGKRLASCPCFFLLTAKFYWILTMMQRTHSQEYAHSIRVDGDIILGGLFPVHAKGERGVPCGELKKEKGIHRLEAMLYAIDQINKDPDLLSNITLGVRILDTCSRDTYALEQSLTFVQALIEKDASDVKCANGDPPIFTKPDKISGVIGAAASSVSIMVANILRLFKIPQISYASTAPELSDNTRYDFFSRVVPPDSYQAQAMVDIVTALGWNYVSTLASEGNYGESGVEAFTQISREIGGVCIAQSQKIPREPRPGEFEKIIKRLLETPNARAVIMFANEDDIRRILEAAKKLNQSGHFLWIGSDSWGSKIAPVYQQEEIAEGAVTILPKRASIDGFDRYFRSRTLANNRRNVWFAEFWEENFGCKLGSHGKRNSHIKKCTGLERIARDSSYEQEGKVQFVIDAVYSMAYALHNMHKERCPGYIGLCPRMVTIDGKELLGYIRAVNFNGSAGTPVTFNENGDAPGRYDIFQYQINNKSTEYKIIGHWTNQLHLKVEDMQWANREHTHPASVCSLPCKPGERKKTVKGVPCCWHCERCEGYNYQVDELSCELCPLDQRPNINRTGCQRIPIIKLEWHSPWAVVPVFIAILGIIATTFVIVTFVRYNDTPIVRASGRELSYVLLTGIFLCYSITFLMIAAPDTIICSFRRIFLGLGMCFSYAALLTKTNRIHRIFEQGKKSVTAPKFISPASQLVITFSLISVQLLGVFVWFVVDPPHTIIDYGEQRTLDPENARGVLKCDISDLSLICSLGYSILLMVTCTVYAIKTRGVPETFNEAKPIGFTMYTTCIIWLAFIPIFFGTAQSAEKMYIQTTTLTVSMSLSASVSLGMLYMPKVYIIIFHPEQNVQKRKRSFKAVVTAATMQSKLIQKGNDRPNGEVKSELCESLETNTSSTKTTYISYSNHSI

| SMILES | z-score |
| --- | --- |
| O=C(/C(=N\Nc1ccc([N+](=O)[O-])cc1)Sc1nnnn1-c1ccccc1)c1ccccc1 | 0.236 |
| S=c1[nH]nc(COc2ccccc2)n1/N=C/C=C/c1ccccc1 | 0.401 |
| CCCCN(C)C/C(O)=C(\C#N)c1nc(-c2ccccc2)cs1 | 0.199 |
| Cc1ccc(-c2cc(C(=O)N/N=C/c3c(C)nn(-c4ccccc4)c3C)n[nH]2)s1 | -0.686 |
| CCc1cc2c(cc3c(=O)n(CC(=O)NCCCN4CC(C)CC(C)C4)ncn32)s1 (stereo not given) | 2.41 |
| O=C(CSc1nnc(SCc2ccc(Cl)cc2)s1)N/N=C/c1c(Cl)cccc1Cl | 0.249 |
| COc1ccc2c3c(c(=O)oc2c1OCC(=O)O)CCCC3 | 0.843 |
| Cc1cccc(N2CCN(C(=O)Cc3c(C(=O)O)[nH]c4ccc(Cl)cc34)CC2)c1C | -1.15 |
| Cc1ccc2c(CN3CCN(CCO)CC3)cc(=O)oc2c1C | -0.38 |
| O=C(O)c1sccc1Oc1ccc(F)cc1[N+](=O)[O-] | -0.0912 |
| Cc1cc(C)n2nc(C(=O)NCc3ccccc3)nc2n1 | -0.519 |
| CCCN(CCC)S(=O)(=O)c1ccc(C(=O)N2CCOCC2)cc1 | -0.0378 |
| COc1cccc(C2CC(c3c(Cl)cccc3Cl)n3nc(N)nc3N2)c1 (stereo not given) | 0.609 |
| Oc1ccc(Cl)cc1CNc1ccc(Br)cn1 | 0.33 |
| CCOC(=O)CCc1c(C)nc2cc(C3CCCN(C(=O)OC(C)(C)C)C3)[nH]n2c1=O (stereo not given) | -1.27 |
| O=C(CSc1ccccc1)Nc1ccccc1C(=O)O | -0.231 |
| COc1ccc(C(C(C(=O)c2ccco2)N2CCOCC2)N2CCOCC2)cc1 (stereo not given) | -0.154 |
| CCCN(CCC)S(=O)(=O)c1ccc(NC(=O)Cc2cccs2)cc1 | -0.666 |
| Cn1c(N2CCN(c3ccccn3)CC2)nc2c1c(=O)n(Cc1ccccc1Cl)c(=O)n2C | -0.275 |
| CCc1ccccc1NC(=O)C1NC(=O)CC1c1ccccc1 (stereo not given) | -0.123 |
| Cc1cc(C)c(S(C)(=O)=O)c(Oc2cccc(Cl)c2)n1 | -0.169 |
| O=c1c2ccccc2nc(-c2ccccc2)n1/N=C/c1ccc([N+](=O)[O-])cc1 | active: 6.71 |
| COc1nnc(-c2ccc(N3CCCCC3)c(NC(C)=O)c2)c2ccccc12 | 0.0275 |
| CC1=CC(c2ccc(Cl)cc2)n2nc(NS(=O)(=O)c3ccc(C)cc3)nc2N1 (stereo not given) | -0.217 |
| Cc1cc(NC(=O)CSc2nnc(-c3cccnc3)n2C)no1 | 0.0216 |
| CCOc1ccc(Nc2ncnc3c2cnn3Cc2ccccc2)cc1 | 2.26 |
| CC(C)c1ccccc1NC(=O)C1CN(S(=O)(=O)c2ccccc2)CCN1S(=O)(=O)c1ccccc1 (stereo not given) | -0.331 |
| O=C(CSc1nnc(Cc2cccs2)n1CCc1ccccc1)N1CCCc2ccccc21 | 0.0317 |

| SMILES | z-score |
| --- | --- |
| COc1ccc(C=C(C(C)=O)C(C)=O)cc1OC | -0.325 |
| CN(/N=C/C=C/c1ccccc1)C1=NS(=O)(=O)c2ccccc21 | 0.00215 |
| CSCCC1NC(=O)N(CC(=O)Nc2c(Cl)cc(Cl)cc2Cl)C1=O (stereo not given) | -0.128 |
| Cc1ccc(CNc2nc(N)c([N+](=O)[O-])c(NCc3ccccc3)n2)cc1 | -0.0457 |
| Cc1cccc(Oc2ncnc3onc(C)c23)c1C | -0.0551 |
| COc1ccc(Cn2c(=O)sc3ccccc32)cc1 | -0.817 |
| CCC(C)n1c(=N)c(C#N)cc2c(=O)n3ccccc3nc21 (stereo not given) | -0.446 |
| CC(=O)c1ccc(Nc2nc(NCCO)nc(OC(C(F)(F)F)C(F)(F)F)n2)cc1 | -0.215 |
| COc1nc(NCC(C)C)nc(Oc2ccc(=O)n(-c3ccccc3)n2)n1 | -0.109 |
| O=C(NCc1ccccc1)C1COc2ccccc2O1 (stereo not given) | -0.13 |
| O=C(O)c1cc2n(n1)C(C(F)(F)F)CC(c1ccccc1)N2 (stereo not given) | -0.725 |
| COCCN(CC(=O)NCc1ccc2c(c1)OCO2)C(=O)CCC(=O)Nc1nccs1 | -0.182 |
| Cc1ccc2nc(N3CCN(Cc4ccc(F)cc4)C3=O)c(C)cc2c1 | -0.912 |
| Cc1ccc(C)c2[nH]c(=O)c(CCNC(=O)c3ccc4c(c3)OCO4)cc12 | 0.118 |
| COC(=O)c1c(NC(=O)CN2CCN(Cc3ccc4c(c3)OCO4)CC2)sc(C)c1C | -0.0305 |
| O=C(c1ccc(NS(=O)(=O)c2cccs2)cc1)N1CCCCC1 | -0.889 |
| COc1ccc(-c2noc(CCC(=O)Nc3ccc4c(c3)OCCO4)n2)cc1 | -0.26 |
| O=C(c1cccc2c1C(=O)N(Cc1cccnc1)C2)N1CCN(c2ccccc2)CC1 | -0.233 |
| CCOc1cccc(N2C(=O)CC(NCc3ccc(S(N)(=O)=O)cc3)C2=O)c1 (stereo not given) | -0.472 |
| Cc1ccc(/C=C/C(=O)Nn2cnnc2)cc1 | 0.123 |
| COc1ccccc1NC(=O)CSc1nnnn1C | 0.016 |
| CCOc1ccc2nc(SC3CC(=O)N(c4ccc(OC)cc4)C3=O)sc2c1 (stereo not given) | 0.369 |
| COc1cccc(C2CC(=O)NC(SC)=C2C#N)c1 (stereo not given) | -0.235 |
| O=c1c2ccc(Cl)cc2[nH]c(=S)n1CCC1=CCCCC1 | active: 5.05 |
| COc1ccc(/C=C2\SC(=S)N(Cc3cccnc3)C2=O)cc1C | -0.0985 |
| Nc1nc2sc3c(c2c(=O)s1)CCCC3 | -0.206 |
| O=C(CSc1nnc(COc2ccccc2)n1Cc1ccco1)Nc1ccc2c(c1)OCCO2 | -0.475 |
